# In all, about 410,000 compounds went through this assay and about 7,200 (1.8%) were called active. The inconclusive results got no clear call from the source; some entries with a clear call stand among them for comparison. The call rests on the fitted dose curve; in most records, active means well fitted activation curve with a large enough effect; inconclusive means small, poorly fitted or top-dose-only effect, or another doubt; inactive means no such curve, though single readings can be large or run the other way. Potencies of inconclusive entries are left out as doubtful fits.
# Assay: qHTS of TDP-43 Inhibitors; further: nearly all actives have a fitted effect of over 50% in size; on growth rescue (activation): % of control where 0% means no effect
# Conditions: TDP-43 expressing yeast growth rescue, BacTiter-Glo, 24 h; growth rescue (activation): at 46.1 µM (top of the series) unless noted
# Procedure, shortened: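 Readout is BacTiter-Glo luminescence of cell growth, so inhibitors register as activators. TDP-43-expressing yeast at OD600=0.02 in galactose medium, after raffinose pregrowth to mid-log, were incubated with compound for 24 hr at 30 deg C.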
# Potency means the concentration at half of the fitted maximal effect; tags describe the fitted curve by direction and shape.
Compound,Potency,growth rescue (activation)
NC(=S)Cc1nc(-c2ccc(Cl)cc2)cs1,"inconclusive [activator, single point]",–
CC(=O)c1sc(Nc2cccc(C)c2)nc1C,active: 7.08 µM,–
CCOc1ccc(NC(=O)CN2C(=O)C(c3ccc(Cl)cc3)=NC2(C)C)cc1,–,inactive: 24.4%
O=C(NCCCN1CCc2ccccc2C1)Nc1ccc(Br)cc1,"inconclusive [activator, single point]",–
COc1ccccc1C(=O)N1CCCN(C(=O)c2ccccc2OC)CC1,–,inactive: -8.12%
CCN(CC)C(=O)c1cccc(-c2csc(C(O)c3cccc(OC)c3)n2)c1 (configuration not stated),–,inactive: 0%
Cc1ccc(-c2nc3ccc(C(=O)O)cc3nc2-c2ccc(C)cc2)cc1,–,inactive: 0%
COc1ccc(OC)c(C2Nc3c(C)cc(C)cc3-c3cc(C)nn32)c1 (configuration not stated),"inconclusive [activator, single point]",–
COc1ccc(C)cc1NC(=O)c1c2c(nc3ccccc13)C(=O)N(C1CCCCC1)C2,–,inactive: 16.4%
O=C(Nc1cc([N+](=O)[O-])ccc1N1CCCC1)c1cccs1,–,inactive: 0.163%
COc1ccc(-c2nc3cnccn3c2Nc2ccc(C)cc2)cc1,"inconclusive [activator, partial curve]",–
CCOc1ccc(C(=O)n2cnnc2N)cc1,"inconclusive [activator, single point]",–
COc1cccc(CN=c2c([N+](=O)[O-])nn(-c3ccccc3C)n2O)c1,"inconclusive [activator, single point]",–
COc1ccc(C2(C(=O)NCCc3ccccc3)CCCC2)cc1,–,inactive: 20.1%
CCN(C(=O)CSc1ncc2c(n1)-c1cc(Cl)ccc1N(Cc1ccccc1)S2(=O)=O)c1cccc(C)c1,"inconclusive [activator, full curve, poor fit]",–
COc1ccc(C2=CC(=O)C[C@H](c3ccc(F)cc3)C2)cc1OC,active: 22.4 µM,–
CCn1c(=O)c2cc(C(=O)Nc3cccc(C(C)=O)c3)sc2c2ccccc21,–,inactive: 6.15%
CCOC(=O)c1c(-c2cccc([N+](=O)[O-])c2)cn2ccccc12,–,inactive: -13.1% [at 0.397 µM]
CCn1c(=O)c2cc(C(=O)NCCCN3CCN(c4ccc(F)cc4)CC3)sc2c2ccccc21,–,inactive: -12.8%
O=C(Nc1ccc2c(c1)OCO2)C1Cc2c(-c3ccc(Cl)cc3)ccnc2O1 (configuration not stated),"inconclusive [activator, single point]",–
Clc1cccc(Cl)c1/C=C/c1ccn[nH]1,active: 22.4 µM,–
COc1ccc(Cl)cc1C(=O)Nc1ccc2nc(Nc3cccc(Cl)c3)cc(C)c2c1,–,inactive: 23.7%
CN(CC1CCCO1)S(=O)(=O)c1ccc(C(=O)Nc2nc(-c3ccccn3)cs2)cc1 (configuration not stated),–,inactive: -4.68%
O=C1NN=C(c2ccccc2)CC1c1c[nH]c2ccccc12 (configuration not stated),"inconclusive [activator, partial curve]",–
Cc1ccc(C)c(C(O)c2ncc(-c3cccc(C(F)(F)F)c3)[nH]2)c1 (configuration not stated),"inconclusive [activator, full curve, poor fit]",–
C=CCn1c(C)cc(C(=O)COC(=O)c2ccc3c(c2)NC(=O)CS3)c1C,"inconclusive [activator, partial curve]",–

Compound,Potency,growth rescue (activation)
COc1ccc(/C=N/Nc2ncnc3sc4c(c23)CCCC4)cc1O,"inconclusive [activator, single point]",–
COc1ccc(C(CC(=O)NCc2ccco2)c2ccc(F)cc2)cc1 (configuration not stated),"inconclusive [activator, single point]",–
Cc1c(C(=O)O)cnc2cc(-c3ccc(Cl)cc3)nn12,active: 3.55 µM,–
N#CCCN1CCN(C(=S)c2ccc(-c3cccc(Cl)c3)o2)CC1,"inconclusive [activator, single point]",–
CC1Cc2ccccc2N1C(=S)NC1CCCC1 (configuration not stated),"inconclusive [activator, partial curve]",–
NC(=O)c1cc(Br)cc(C2CCCCC2)c1O,–,inconclusive: 99.5% [activator]
N#Cc1c(NCc2ccccc2)ccnc1Cl,active: 14.1 µM,–
O=C(Nc1ccc2ccccc2c1)C(c1ccccc1F)n1c(=O)c(-c2cc3ccccc3[nH]2)nc2ccccc21 (configuration not stated),"inconclusive [activator, full curve]",–
Cc1ccc(S(=O)(=O)C2(C(=O)Nc3cccc(F)c3)CC2)cc1,"inconclusive [activator, partial curve, poor fit]",–
CCNc1nc(NCC)n2c(SC(C)C(=O)c3ccc(C)cc3)nnc2n1 (configuration not stated),–,inactive: 14.3%
CCN(CC)Cc1cc(C(C)=O)ccc1OCC(C)C,–,inactive: -7.47%
COc1ccc(OC)c(-c2nnc(-c3ccc(C)o3)o2)c1,active: 12.6 µM,–
Cc1nc2sccn2c(=O)c1S(=O)(=O)N1CCN(c2ccccc2)CC1,–,inactive: 5.85%
Cn1c(=N)n(CC(=O)c2ccc(Br)cc2)c2ccccc21,"inconclusive [activator, partial curve]",–
CC(=O)Nc1sc2c(c1C(c1cccs1)N1CCOCC1)CCCC2 (configuration not stated),–,inactive: -2.34%
COc1ccc2sc(-c3ccccc3OC)c(C#CC(C)(C)O)c2c1,"inconclusive [activator, partial curve]",–
COc1ccccc1N=NC1C(=O)N(C(N)=S)N=C1C (configuration not stated),"inconclusive [activator, single point]",–
COC(=O)/C=C\C(=O)Nc1cccc([N+](=O)[O-])c1,–,inconclusive: -91.5% [activator]
C/C(=N\N=C1\NC(=O)C(Cc2ccccc2)S1)c1ccccc1 (configuration not stated),"inconclusive [activator, single point]",–
CN(Cc1cccs1)C(=O)CN1C(=O)c2ccccc2S1(=O)=O,"inconclusive [activator, partial curve, poor fit]",–
COC(=O)CCC(=O)Nc1sc(Cc2ccccc2)c(C)c1C(N)=O,–,inactive: -21.7% [at 0.397 µM]
O=C(CSc1nc2ccccc2[nH]1)NCC1CCCO1 (configuration not stated),"inconclusive [activator, partial curve]",–
Cc1cc(NC(=O)c2oc3ccccc3c2C)ccc1-n1cnnn1,"inconclusive [activator, partial curve]",–
CC(C)(C)C1CCc2c(sc(NC(=O)c3ccco3)c2C(N)=O)C1 (configuration not stated),–,inactive: 12.5%
Cc1ccc2nc(-c3ccc(NC(=O)COC(=O)c4ccco4)cc3)sc2c1,–,inactive: -7.51%
CCC(=O)N1CCc2cc(CNS(=O)(=O)c3c(C)cc(C)cc3C)ccc21,"inconclusive [activator, partial curve]",–

Compound,Potency,growth rescue (activation)
O=[N+]([O-])c1ccc(Nc2nccc(Cl)n2)cc1,active: 5.62 µM,–
CSc1nccc(NC(=O)c2cccc(Br)c2)n1,–,inconclusive: 74.3% [activator]
Cc1nn(C(=O)c2ccccc2)c2c1C(=O)CC(C)(C)C2,"inconclusive [activator, partial curve]",–
CCOc1ccc(C(=O)NCC2OCCc3ccccc32)cc1 (configuration not stated),"inconclusive [activator, single point]",–
Cc1cc(C)cc(-n2c(SCC(=O)N3CCCC3)nc3c([nH]c4ccccc43)c2=O)c1,–,inactive: 19.2%
Cc1cccc(OCCn2nnc3ccccc32)c1C,"inconclusive [activator, partial curve]",–
O=C(NC(=S)Nc1ccccc1N1CCCC1)c1cccs1,"inconclusive [activator, single point]",–
COCCNC(=O)c1ccc2c(=O)n(CCOC)c(=O)[nH]c2c1,–,inactive: -0.88%
Cc1c(/C=N/O)c2ccccn2c1C=O,"inconclusive [activator, single point]",–
COc1ccc2c(c1)CSC(c1ccccc1)C2=O (configuration not stated),"inconclusive [activator, partial curve]",–
COc1ccc(-n2c(-c3ccc(C)cc3)n[nH]c2=S)cc1,"inconclusive [activator, partial curve, poor fit]",–
CC(=O)c1ccc(NC(=O)C[n+]2cccc(C)c2)cc1,–,inactive: 20.5%
c1csc(-c2nnc(N3CCOCC3)c3ccccc23)c1,"inconclusive [activator, partial curve]",–
CCOc1ccc(N2CC(c3nc4ccccc4n3CCCOc3ccccc3OC)CC2=O)cc1 (configuration not stated),–,inactive: 23.2%
O=C(CSc1ccsc1[N+](=O)[O-])Nc1cc(F)ccc1F,"inconclusive [activator, partial curve]",–
c1ccc(OCc2nn3c(-c4ccccn4)nnc3s2)cc1,active: 14.1 µM,–
COc1cccc(-c2nn(-c3ccccc3)cc2CO)c1,"inconclusive [activator, single point]",–
COC(C[C@@H]1O[C@@H]1C(=O)[C@H](C)OCc1ccccc1)OC,–,inactive: 13%
COc1cc(OC)c(NC(=O)C(c2ccccc2)N2Cc3ccccc3C2=O)cc1Cl (configuration not stated),–,inactive: 25%
Cc1cccc(NS(=O)(=O)c2ccc(-c3cnc(C4CC4)o3)cc2)c1,"inconclusive [activator, single point]",–
CCOc1cc(-c2cc(-c3ccc(N)cc3)nc(N)c2C#N)ccc1O,active: 15.8 µM,–
O=C(NCc1ccccc1Cl)C1CCN(S(=O)(=O)Cc2ccccc2)CC1,–,inactive: 9.71%
O=C(CCSc1ccc(Cl)cc1)c1ccco1,"inconclusive [activator, partial curve]",–
CCc1ccc2nc(NC(=O)c3cc(C)on3)sc2c1,"inconclusive [activator, full curve, poor fit]",–
Cc1cccc(Sc2c(C=O)c3ccccc3n2C)c1,"inconclusive [activator, single point]",–

# From PubChem BioAssay AID652104 (National Center for Advancing Translational Sciences (NCATS), 2013)
